Among all 48,000 compounds or so, about 120 (0.25%) were called active. Roughly 4% stayed inconclusive and do not appear here. The call rests on the fitted dose curve; in most records, active means well fitted activation curve with a large enough effect; inconclusive means small, poorly fitted or top-dose-only effect, or another doubt; inactive means no such curve, though single readings can be large or run the other way. The list shows a part of the results.
test: Primary qHTS for Identification of Small Molecule Activators of Huntingtin-Antisense Promoter Activity; details: HEK293 HTT-AS promoter firefly luciferase reporter (activity 0% = vehicle and -100% = no light), 24 h; series mostly up to 57.5 µM; activity change, positive = activation: at the top concentration; further: nearly all actives have a fitted effect of over 55% in size
Method in brief: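 Quantitative HTS used concentration series of up to 57.5 uM final on HEK293 luciferase reporter cells, 24 h at 37 degrees C. Readout was Dual-Glo firefly luminescence.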

Row | SMILES | activity change, positive = activation
1 | COc1ccc(CCNC(=O)C(=O)Nc2ccc(C)cc2)cc1OC | inactive: -0.617%
2 | CCN(C(=O)c1cc2cc3ccc(OC)cc3nc2o1)c1cccc(C)c1 | inactive: -8.69%
3 | Cc1ccc(C)c(NC(=O)CSc2nc(-c3ccccc3)cc(=O)[nH]2)c1 | inactive: -6.27%
4 | CC(=O)c1ccc(Oc2nc(C)nc3c2oc2ccccc23)cc1 | inactive: -76.4%
5 | COc1ccc(-c2nc(C(=O)Nc3ccc(C(C)=O)cc3)nn2-c2cccc(Cl)c2)cc1 | inactive: -24.8%
6 | CC(C)c1ccc(NC(=O)c2ccc(F)c(S(=O)(=O)N3CCCCCC3)c2)cc1 | inactive: -33.6%
7 | COc1ccc(S(=O)(=O)NCCc2csc3nc(-c4ccc(OC)c(OC)c4)nn23)cc1C | inactive: -10.5%
8 | O=C1CCSc2ccc(S(=O)(=O)Nc3ccc(Cl)c(C(F)(F)F)c3)cc2N1 | inactive: -16.3%
9 | CCc1ccccc1NC(=O)c1ccc2c(c1)CCN2S(C)(=O)=O | inactive: -8.55%
10 | CC(C)(C)c1ccc(C(=O)Nc2cc(-c3nc4ccccc4o3)ccc2Cl)cc1 | inactive: 9.16%
11 | CCCCn1c(=O)c2oc3ccccc3c2n(CC(=O)Nc2cccc(Cl)c2C)c1=O | inactive: -6.17%
12 | CCc1ccccc1NC(=O)C1CCN(S(=O)(=O)c2ccc3[nH]c(=O)ccc3c2)CC1 | inactive: -7.76%
13 | Cc1noc(C)c1S(=O)(=O)N1CCC(C(=O)Nc2ccc(Br)cc2)CC1 | inactive: -27.5%
14 | COc1ccc(Cc2nc3ccc(C(=O)NCc4ccc(OC)cc4OC)cc3o2)cc1 | inactive: -39.8%
15 | COc1ccc(CNC(=O)c2nc(Cn3nc(C)c(Br)c3C)no2)cc1OC | inactive: -43.9%
16 | COc1cc(NC(=O)c2sc3nc4n(c(=O)c3c2C)CCCCC4)cc(OC)c1OC | inactive: -12.9%
17 | Cc1cccc(CNC(=O)c2ccc(NC(=O)N3CC(C)Sc4ccccc43)cc2)c1 (configuration not stated) | inactive: -5.82%
18 | Nc1c(C(=O)c2ccc(F)cc2)sc(Nc2ccccc2F)c1S(=O)(=O)c1ccc(Br)cc1 | inactive: -33.3%
19 | CC(C)CN(CCNC(=O)CN1C(=O)CSc2ccc(S(=O)(=O)N3CCOCC3)cc21)CC(C)C | inactive: -4.92%
20 | Cc1ccc(NC(=O)Cn2c(=O)n(-c3ccccc3)c(=O)c3ccc(C(=O)NCc4ccc5c(c4)OCO5)cc32)c(C)c1 | inactive: -56.8%
21 | CCOc1ccc(S(=O)(=O)N(CC(=O)Nc2ccc3c(c2)OCO3)c2ccccc2)cc1 | inactive: -9.89%
22 | O=C(/C=C\c1ccc2c(c1)OCO2)NC1CC(=O)N(c2cccc(F)c2)C1 (configuration not stated) | inactive: -12.8%
23 | COc1ccccc1CNC(=O)c1ccc2c(c1)CCN2S(=O)(=O)c1ccccc1 | inactive: -16.3%

Row | SMILES | activity change, positive = activation
24 | O=C(Nc1c(-c2ccc(F)cc2)nc2ccccn12)c1ccccc1F | inactive: -13.6%
25 | CCOC(=O)c1cccc(NC(=O)c2ccc3nc(Cc4ccccc4)oc3c2)c1 | inactive: -16.1%
26 | CC(C)NCC(O)COc1ccc(COCCOC(C)C)cc1 (configuration not stated) | inactive
27 | COc1ccc(CN(Cc2ccco2)c2cnc(S(C)(=O)=O)nc2C(=O)Nc2ccc(F)cc2)cc1 | inactive: -22.9%
28 | COc1ccc(OC)c(-c2csc(-c3c(N)c(C(=O)c4ccccc4)n4ccccc34)n2)c1 | inactive: 10.2%
29 | Cn1c(=O)n(C/C=C/c2ccccc2)c(=O)c2c1nc1n2CCN1c1ccccc1 | inactive: -9.6%
30 | CCCCOc1ccc(CNC(=O)C2COc3ccc(OC)cc3C2)cc1 (configuration not stated) | inactive: -16.4%
31 | COc1ccc(S(=O)(=O)N(CC(=O)Nc2cccc(C(F)(F)F)c2)c2ccc(C)cc2)cc1 | inactive: -37.6%
32 | CCOc1ccc(C(=O)c2cn(CC(=O)Nc3ccc4c(c3)OCO4)c3ccc(OCC)cc3c2=O)cc1 | inactive: -8.65%
33 | COc1ccc(-n2c(=O)c3c(c4cc(OC)ccc4n3C)n(Cc3cc(C)ccc3C)c2=O)cc1 | inactive: -5.68%
34 | COC(=O)c1cccnc1-n1c(=O)c2cccnc2n(CC(=O)Nc2c(C)cc(C)cc2C)c1=O | inactive: -17.9%
35 | O=C(Cn1ncn2nc(-c3cccs3)cc2c1=O)NCc1cccc(Br)c1 | inactive: 6.12%
36 | Cc1ccc(NC(=O)CN2C(=O)COc3ccc(S(=O)(=O)N4CCCCC4)cc32)cc1N(C)C | inactive: -14.3%
37 | CCOc1ccc(NC(=O)CC2C(=O)N(c3ccccc3)C(=O)N2Cc2ccc3c(c2)OCO3)cc1 (configuration not stated) | inactive: 0%
38 | Cc1ccc(CNC(=O)C2CCN(S(=O)(=O)c3cc(-c4noc(C)n4)ccc3C)CC2)cc1 | inactive: -38.6%
39 | Cc1nc2c(-c3ccccc3)c(C)nn2c(C)c1CCC(=O)NCc1ccc(F)cc1 | inactive: -13.6%
40 | Cc1c(Cl)cccc1-n1nc(C)c2c(C(=O)NCc3ccccc3)cc(C3CC3)nc21 | inactive: -12.3%
41 | Cn1c(=O)oc2cc(S(=O)(=O)Nc3ccccc3O)ccc21 | inactive: -13.4%
42 | CCOc1ccc(CCNC(=O)c2cc3c(s2)-c2ccccc2OC3)cc1OCC | inactive: -26.4%
43 | COc1ccc(-c2cc(C(F)(F)F)nc(SCC(=O)N3CCC(C)CC3)n2)cc1 | inactive: -3.38%
44 | Cc1ccc(-n2c3c(c(=O)[nH]c2=O)C(NC(=O)c2ccccc2C)(C(F)(F)F)C(=O)N3)cc1 (configuration not stated) | inactive: 1.45%
45 | COc1cccc(/C=C/c2onc(C)c2S(=O)(=O)N2CCC(C(=O)N3CCC(C)CC3)CC2)c1 | inactive: -19.8%
46 | COc1ccccc1N1CCN(C(=O)CSc2n[nH]c(-c3ccccc3)n2)CC1 | inactive: -18.7%

Row | SMILES | activity change, positive = activation
47 | Cc1cc2ccccc2n1-c1ccc(C(=O)N2CCC(C(=O)NCc3ccccc3Cl)CC2)s1 | inactive: -12.6%
48 | CC(CNC(=O)Cc1ccc(NC(=O)N2CCSc3ncccc32)cc1)c1ccccc1 (configuration not stated) | inactive: -29.4%
49 | COC(=O)c1scc(-c2ccc(C)cc2)c1S(=O)(=O)Nc1ccc(N(C)C)cc1 | inactive: -17%
50 | COc1ccc(-c2cn3c(n2)sc2cc(C(=O)Nc4cccc(OC)c4)ccc23)cc1 | inactive: 2.72%
51 | Cc1ccccc1NCc1cccn1-c1nnc(N2CCC(C)CC2)s1 | inactive: -3.53%
52 | CCOC(=O)C1=C(CN2CCN(c3ccccc3F)CC2)NC(=O)NC1c1ccc(Cl)cc1 (configuration not stated) | inactive: -29.5%
53 | CCOc1ccc(NC(=O)c2cc3cc4cc(OC)ccc4nc3s2)cc1 | inactive: -16.7%
54 | Cc1cccc(NS(=O)(=O)c2ccc3c(c2)OCC(C(=O)N2CCCC2)O3)c1C (configuration not stated) | inactive: -17.1%
55 | CCc1nn(CCCC(=O)NCc2cc(Br)ccc2OC)c(=O)c2cc3occc3n12 | inactive: -24.9%
56 | COc1cccc(C(=O)Nc2cccc(C(=O)OCc3cc(=O)n4c5c(sc4n3)CCCC5)c2)c1 | inactive: -15%
57 | CCOC(=O)CSc1nc2c(sc3cccc(F)c32)c(=O)n1Cc1ccc(OC)cc1 | inactive: -3.92%
58 | COc1ccc2cc(CNc3ccc(C)cc3)c(=O)n(CC(=O)Nc3cccc(C(F)(F)F)c3)c2c1 | inactive: -20.7%
59 | Cc1ccc(-c2nnc(Nc3ccc(O)cc3)c3ccccc23)cc1S(=O)(=O)N1CCCCC1 | inactive: -38.4%
60 | O=c1c2cccnc2n(Cc2cccc(F)c2)c(=O)n1Cc1ccccc1Cl | inactive: -22%
61 | CC(C)(C)C(=O)Nc1ccc2nc(SCC(=O)N3CCc4ccccc43)sc2c1 | inactive: -46.4%
62 | Cc1ccc(S(=O)(=O)c2cn(CC(=O)Nc3ccc4c(c3)OCO4)c3ccccc3c2=O)cc1C | inactive: -18%
63 | COc1ccccc1-n1c(=O)c2c3c(sc2n(Cc2ccccc2F)c1=O)CN(C(C)=O)CC3 | inactive: -25.2%
64 | O=C(NCCS(=O)(=O)N1CCN(c2ccc(F)cc2)CC1)C1CC(=O)N(c2ccccc2)C1 (configuration not stated) | inactive: 5.94%
65 | Cc1ccc(NC(=O)N2CCN(C)c3ncccc32)cc1C | inactive: -12.8%
66 | O=C(CN1C(=O)COc2ccc(S(=O)(=O)N3CCCCCC3)cc21)NCCc1ccccc1 | inactive: -16%
67 | Cc1ccc(CN2C(=O)N(c3ccccc3)C(=O)C2CC(=O)Nc2ccccc2)cc1 (configuration not stated) | inactive: 3.12%
68 | COc1cc(OC)c(N(C)C(=O)Cn2ncc3c(=O)oc4ccccc4c32)cc1Cl | inactive: -3.12%
69 | COCCNC(=O)c1c(NC(=O)c2cc(=O)c3cc(Cl)ccc3o2)sc2c1CCCC2 | inactive: -6.86%

Row | SMILES | activity change, positive = activation
70 | COC(=O)c1ccccc1NC(=O)N1CCC(n2c(C)nc3cccnc32)CC1 | inactive: -17.5%
71 | CCc1cccc(C)c1NC(=O)Cn1cc2c(n1)CCCCC2 | inactive: -21.2%
72 | COc1ccccc1NC(=O)Cn1nnc(C(=O)Nc2ccccc2Br)c1N | inactive: -1.94%
73 | CC(=O)N1CCN(c2csc3ccc(Br)cc3c2=O)CC1 | inactive: 16.7%
74 | Cc1ccc(CNC(=O)c2cc(=O)c3cc(C)cc(C)c3o2)cc1 | inactive: -9.91%
75 | COC(=O)c1ccccc1NC(=O)c1cnc2sc(N3CCOCC3)nn2c1=O | inactive: -12.2%
76 | CCC(C)NC(=O)CSc1nc(-c2ccc(F)cc2)cc(C(F)(F)F)n1 (configuration not stated) | inactive: -3.01%
77 | CCN1C(=O)c2ccccc2S(=O)c2ccc(C(=O)N3CCN(c4ccccc4OC)CC3)cc21 (configuration not stated) | inactive: -41.6%
78 | COc1cccc(CNC(=O)CCCCCn2c(=O)[nH]c3cc(OC)c(OC)cc3c2=O)c1 | inactive: -6.56%
79 | CCOC(=O)c1c(C)[nH]c(C)c1S(=O)(=O)NCC(=O)NCc1ccccc1Cl | inactive: -0.229%
80 | COc1cc(C(CC(=O)Nc2cc(C)ccn2)N2Cc3ccccc3C2=O)cc(OC)c1OC (configuration not stated) | inactive: -7.52%
81 | COc1cc(-c2oc3ccc(C)cc3c(=O)c2O)cc(OC)c1OC | inactive: -13.2%
82 | COc1ccccc1NC(=O)CSc1oc(-c2ccccc2)nc1S(=O)(=O)c1ccccc1 | inactive: -13.8%
83 | COc1ccc2c(c1)c1c(c(=O)n(-c3cccc(C)c3)c(=O)n1CC(=O)NCC1CCCO1)n2C (configuration not stated) | inactive: -7.98%
84 | COc1ccccc1CNC(=O)CCCn1c(=O)c2ccccc2n(Cc2ccccc2C#N)c1=O | inactive: -12.9%
85 | Cc1cccc(Cc2c(C)nc3nc(SCc4ccccc4F)nn3c2C)c1 | inactive: -20.5%
86 | CCOc1ccccc1C(=O)Nc1ccc(S(=O)(=O)Nc2ncccn2)cc1 | inactive: -13%
87 | CC(C)=CCC/C(C)=C/CC/C(C)=C/C(=O)OCC(=O)[C@@]1(O)CC[C@H]2[C@@H]3CCC4=CC(=O)C=C[C@]4(C)[C@H]3[C@@H](O)C[C@@]21C | inactive: -2.72%
88 | CCCN1CCN(CCNC(=O)Nc2ccccc2OCC)CC1 | inactive: -5.13%
89 | CCCN(Cc1cccs1)C(=O)Nc1ccc(Br)cc1F | inactive: 3.9%
90 | COc1ccc2[nH]c(=O)c(CN(C(=O)c3cccc(Cl)c3)c3cccc(C)c3)cc2c1 | inactive: -20.9%
91 | C[C@H]1C[C@H]2[C@@H]3CCC4=CC(=O)C=C[C@]4(C)[C@@H]3C(=O)C[C@]2(C)[C@@]1(O)C(=O)CO | inactive: -21.8%
92 | CCN1CCN(c2ncc3c(n2)CCN(Cc2ccc(OC)c(OC)c2)C3)CC1 | inactive: -7.87%

Source: PubChem BioAssay AID1508624 (National Center for Advancing Translational Sciences (NCATS), 2021)
